According to PubChem BioAssay AID1347073 (National Center for Advancing Translational Sciences (NCATS), 2019):
Hit rate of the full screen: of about 45,000 compounds, about 200 (0.44%) were called active. Roughly 7% stayed inconclusive and do not appear here. Calls come from the whole dose curve; as a rule, active = well fitted activation curve with a large enough effect; inconclusive = small, poorly fitted or top-dose-only effect; inactive = no such curve, though single readings can be large or run the other way. Some of the results follow.

assay: qHTS of TDP-43 Inhibitors: NCGC Sytravon Library Screen; details: yeast TDP-43 toxicity rescue, BacTiter-Glo growth, 24 h; series mostly up to 46.1 µM; growth rescue (activation): at the top concentration; note: nearly all actives have a fitted effect of over 55% in size; for growth rescue (activation): 0% is about no effect
Outline: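 TDP-43-expressing yeast, pregrown in raffinose, seeded at OD600 0.02 in galactose medium with compound for 24 hr at 30 deg C. Growth read by BacTiter-Glo luminescence, so rescue of toxicity appears as activation.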
Potency is the fitted concentration of half-maximal effect.

SMILES | growth rescue (activation) | Potency
COCCN1CCN(C(=O)c2ccc3oc(CCCc4ccccc4)nc3c2)CC1 | inactive: 4.19% | –
CCOc1ccc(S(=O)(=O)N2CCC(C(=O)NCc3ccccn3)CC2)cc1 | inactive: 8.04% | –
C#Cc1cccc(Nc2nc(NCc3ccccc3)nc3ccsc23)c1 | inactive: 21.3% | –
Cc1cccc(NC(=O)COC(=O)CN2CCCCCC2=O)c1C | inactive: -25.1% | –
COC(=O)Nc1ccc(S(=O)(=O)N2CCCC(C(=O)O)C2)cc1 (stereo not drawn) | inactive: -16.5% | –
CC(=NNC(=O)CSc1nc2ccccc2o1)c1ccco1 | inactive: 23.9% | –
COc1cccc(/C=N/NC(=O)CCc2n[nH]c(=O)[nH]c2=O)c1O | inactive: -10.2% | –
CCOC(=O)c1nn(-c2ccc(F)cc2)c(=O)c2c(N)scc12 | inactive: 15.2% | –
COc1ccc(-c2cc(C(F)(F)F)nc(N3CCN(c4ccc(F)cc4)CC3)n2)cc1OC | inactive: 4.73% | –
COc1cc2c(cc1OC)CN(C(=O)c1ccc(S(=O)(=O)N3CCCCCC3)cc1)CC2 | inactive: 25.6% | –
CC1=CC(C)(C)Nc2ccc(OC(=O)CN3C(=O)C4CCCCC4C3=O)cc21 (stereo not drawn) | inactive: 17.1% | –
COc1ccc([N+](=O)[O-])cc1NC(=O)C1CCCO1 (stereo not drawn) | inactive: -12.5% | –
Cc1ccccc1CN1C[C@@H]2C[C@@H](c3cn(C)nc3-c3ccccc3)N3CCC[C@@]23C1=O | inactive: -3.66% | –
CCOC(=O)C1(C)CCCN(C(=O)CCc2ccccc2)C1 (stereo not drawn) | inactive: 15% | –
Cc1nc(N)sc1C(=O)N/N=C/c1cccnc1 | inactive: -3.23% | –
Cc1ccccc1P(=O)(CO)c1ccccc1C | inactive: -15.5% | –
Cc1nn(C(C)(C)C)c(OC(=O)CC(C)C)c1S(=O)(=O)c1ccccc1 | inactive: -11% | –
CCOC(=O)c1sc2nc(C)nc(SCC(=O)NC3CCS(=O)(=O)C3)c2c1C (stereo not drawn) | inactive: -4.47% | –
C/C(CC(=O)Nc1cc(C)ccn1)=N\NC(=O)c1ccc(C(C)(C)C)cc1 | inactive: 17% | –
COc1ccc(C(C)NCCC(c2ccc(OC(C)C)cc2)c2ccccc2OC)cc1 (stereo not drawn) | inactive: 11.9% | –
CCc1ccc(NC(=O)CCC(=O)c2ccc(C)cc2)cc1 | inactive: 2.36% | –
NS(=O)(=O)c1ccc(NC(=O)CSc2nnc(-c3ccc(O)cc3)o2)cc1 | inactive: -2.69% | –
Nc1c(C(=O)CSc2nnnn2-c2ccccc2)c(=O)[nH]c(=O)n1C1CC1 | inactive: 0.269% | –

SMILES | growth rescue (activation) | Potency
Cc1ccc(/C=C/C(=O)c2ccc(O)cc2)cc1 | – | active: 15.8 µM
O=C(NCCc1ccccc1)c1ccc(-c2cccnc2)c2ccoc12 | inactive: 19.5% | –
Cc1ccc(C(=O)NCC(c2ccc(F)cc2)N2CCOCC2)s1 (stereo not drawn) | inactive: 11.2% | –
CC(O)(c1cccnc1)c1nc(-c2cc(F)cc(F)c2)cs1 (stereo not drawn) | inactive: 6.18% | –
Cc1nc(NC(=O)c2ccccc2)sc1-c1csc(Nc2ccc(C(=O)O)cc2)n1 | inactive: -12.7% | –
Cc1cc(C)n(CC(=O)Nc2ccc3c(c2)OCO3)c(=O)c1C#N | inactive: 8.87% | –
Cc1cccc(OCC(=O)NCC(c2ccco2)N2CCCC2)c1 (stereo not drawn) | inactive: 22.5% | –
COc1ccc(CNC(=S)NC2CCCC2)cc1 | inactive: -1.93% | –
COCCNC(=O)C(c1ccc(F)cc1)N(C(=O)CCC(=O)Nc1ccccn1)c1cccc(C)c1 (stereo not drawn) | inactive: 6.26% | –
Cc1ccc(S(=O)(=O)N/N=C/c2ccc(O)cc2O)cc1[N+](=O)[O-] | inactive: 16.9% | –
CN(C(=O)COC(=O)c1n[nH]c2ccccc12)c1ccccc1 | inactive: 1.99% | –
COc1ccc(Br)cc1CN1CCCCCC1 | inactive: -13.9% | –
CC(=O)Nc1ccc(-c2csc(NC(=O)Cc3ccccc3F)n2)cc1 | inactive: -3.92% | –
OC(CNc1nc(-c2cccnc2)nc2ccccc12)c1ccccc1 (stereo not drawn) | inactive: 3.23% | –
O=C(/C=C/c1cccc(F)c1)Nc1ccc(S(=O)(=O)N2CCOCC2)cc1 | inactive: 2.31% | –
CCOC(=O)c1c(C)n(-c2ccc(OC)cc2)c2ccc(OC(=O)COc3ccccc3)cc12 | inactive: 4.04% | –
Fc1ccc(-c2csc(NC3=NCCC3)n2)cc1 | inactive: 6.47% | –
COC(=O)COc1ccc2c(=O)c(Oc3ccccc3Br)coc2c1 | inactive: -12% | –
CC(C)(Cc1ccc(O)cc1)NC(=O)CC(=O)N/N=C/c1ccc([N+](=O)[O-])cc1 | inactive: 5.49% | –
CC1CN(C(=O)COC(=O)c2ccc(Cl)c(N)c2)CC(C)O1 (stereo not drawn) | inactive: 9.87% | –
CC1(C(=O)NS(=O)(=O)c2cccc(F)c2)CCN1C(=O)C1(c2ccc(Cl)cc2)CCC1 (stereo not drawn) | inactive: 27.9% | –
Cc1noc(C)c1-c1ccc(C(=O)NC2CCCCC2)c2occc12 | inactive: 7.35% | –
O=C(CN(C(=O)CCC(=O)Nc1ccccn1)C1CCCC1)NCc1ccc(F)cc1 | inactive: 2.01% | –

SMILES | growth rescue (activation) | Potency
COc1cccc(OCc2cc(C(=O)NCCc3cccc(C)n3)no2)c1 | inactive: 11.8% | –
Cc1ncc([N+](=O)[O-])n1S(=O)(=O)c1ccc2c(c1)OCCO2 | inactive: -17.3% | –
Cc1nnsc1C(=O)NC1CCCc2c1cnn2-c1cc(F)cc(F)c1 (stereo not drawn) | inactive: 23.5% | –
c1ccc(COc2cccc(-c3cc4nc(NCCOc5ccccc5)ccn4n3)c2)cc1 | inactive: 13.4% | –
COc1cccc(OCCNC(=O)c2cc(OC)c(OC)c(OC)c2)c1 | inactive: -7.18% | –
COc1ccc(CNC(=O)CN(C)S(=O)(=O)c2ccc3nc(C)sc3c2)cc1 | inactive: 1.8% | –
COc1cc(NC(=O)CSc2nc3ncnc(N)c3[nH]2)c(C(=O)O)cc1OC | inactive: 10.5% | –
CC(Oc1ccc2oc3ccccc3c2c1)C(=O)NC12CC3CC(CC(C3)C1)C2 (stereo not drawn) | inactive: -11.3% | –
Cc1ccc2c(c1)C1C[N+](C)(CC(=O)Nc3ccccc3Cl)CCC1N2C(=O)c1ccccc1Cl (stereo not drawn) | inactive: 22.3% | –
NC(=S)N/N=C/c1ccc(-n2nncc2-c2ccc(Cl)cc2)cc1 | inactive: -26.1% | –
Cc1sc(NC(=O)/C=C/C(=O)O)c(C(N)=O)c1-c1ccc(C(C)(C)C)cc1 | inactive: 32.8% | –
COc1ccc(OCC(=O)N/N=C/c2ccc(N(C)C)cc2)cc1 | inactive: 4.35% | –
COc1cc(/C=C/C(=O)OCC(=O)NC(C)c2ccccc2)cc(OC)c1OC (stereo not drawn) | inactive: 7.19% | –
O=C(COC(=O)CC1CCCC1)Nc1ccc(Br)cc1F | inactive: -24.7% | –
Cc1cccc(NC(=O)COC(=O)c2ccc3nc(C)c(C)nc3c2)c1 | inactive: 18.1% | –
CCN1CCN(C(=O)C(C)Sc2nc3nc(C)cc(C)n3n2)CC1 (stereo not drawn) | inactive: -5.83% | –
O=C(NCCCN1CCOCC1)c1cn(-c2ccccc2)nc1-c1ccc(F)cc1 | inactive: 14.1% | –
O=C(c1ccccc1)n1nnc2ccccc21 | inactive: 28.7% | –
O=C(NCC1CCCO1)c1ccccc1NS(=O)(=O)c1cccs1 (stereo not drawn) | inactive: -2.92% | –
COc1ccc(S(=O)(=O)Nc2cc(C(=O)NCCCN3CCOCC3)ccc2N2CCOCC2)cc1 | inactive: -6.92% | –
CC(/C=N/NC(=O)Cc1cccs1)=C\c1ccccc1 | inactive: 1.67% | –
CCCN1C(=O)COc2ccc(-c3n[nH]c(=O)c4ccccc34)cc21 | inactive: 15.9% | –
